Among all 48,000 compounds or so, about 120 (0.25%) were called active. Another 4% or so got no clear call; they are omitted. Calls follow the shape of the dose curve; as a rule, active = well fitted activation curve with a large enough effect; inconclusive = small, poorly fitted or top-dose-only effect, or another doubt; inactive = no such curve, though single readings can be large or run the other way. Some of the results follow.
assay: Primary qHTS for Identification of Small Molecule Activators of Huntingtin-Antisense Promoter Activity; conditions: HEK293 HTT-AS promoter firefly luciferase reporter (activity 0% = vehicle and -100% = no light), 24 h; series mostly up to 57.5 µM; activity change, positive = activation: at the top concentration; also: nearly all actives have a fitted effect of over 55% in size
How it was run: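 HEK293 luciferase promoter-reporter cells (2,500/well) plated 24 h, then compounds added at up to 57.5 uM final for 24 h at 37 °C. Firefly luminescence by Dual-Glo, normalized to vehicle (0%) and zero RLU (-100%).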

SMILES | activity change, positive = activation
COc1ccc(CCNc2nc(SCc3ccccc3F)nc3ccccc23)cc1OC | inactive: -2.81%
CCC(=O)N1CCc2cc(CNS(=O)(=O)c3ccc(C(C)C)cc3)ccc21 | inactive: -30.6%
CC(=Cc1ccccc1)C=C1SC(=S)N(CC(=O)O)C1=O | inactive: 19.5%
Cc1nn(-c2ccccc2)c2sc(C(=O)Nc3cccc(Cl)c3)cc12 | inactive: -28.3%
CCOC(=O)c1c(NC(=O)/C=C/c2ccc(OCC)cc2)sc(C(C)=O)c1C | inactive: -0.84%
COc1cc2nc(NCCc3ccccc3)n3nc(-c4cccnc4)nc3c2cc1OC | inactive: -14.6%
Cc1ccc(C)c(N2CCN(C(=O)CCS(=O)(=O)c3cc(Br)cc4c3N(C(=O)C3CC3)CC4)CC2)c1 | inactive: -19.4%
COc1cc(NC(=O)CCc2c(C)nc3c(-c4ccc(F)cc4)c(C)nn3c2C)cc(OC)c1OC | inactive: -7.56%
COc1ccc(CNC(=O)C(Cc2ccccc2)NS(=O)(=O)c2ccc3c(c2)CCN3C(C)=O)cc1 (configuration not stated) | inactive: -9.12%
CCCSc1ncc(Cl)c(C(=O)N2CCN(c3cccc(Cl)c3)CC2)n1 | inactive: -40.9%
CCOc1ccc(NC(=O)CC2C(=O)N(c3ccc(OC)cc3)C(=O)N2C2CCCCC2)cc1 (configuration not stated) | inactive: -12.4%
CCOc1ccc(NC(=O)CC2C(=O)N(c3ccccc3)C(=O)N2C2CCCC2)cc1 (configuration not stated) | inactive: -14.4%
Cc1ccc(CNC(=O)Cn2nc(N3CCN(c4ccccc4)CC3)ccc2=O)cc1 | inactive: -21%
Cc1cccc(N2CCN(C(=O)c3cnn(-c4ccc(F)cc4F)c3C3CCN(C(=O)OC(C)(C)C)CC3)CC2)c1C | inactive: -34%
COc1ccc(-n2c(SCC(=O)NCc3ccco3)nc3c([nH]c4ccccc43)c2=O)cc1 | inactive: -25.3%
CCOc1ccccc1NC(=O)c1cc2cc3cc(C)ccc3nc2s1 | inactive: 16.2%
CCCn1c2ccccc2c2cnn(CC(=O)N(CC)c3cc(C)ccc3C)c(=O)c21 | inactive: -33.8%
CCCNC(=O)CSc1c2c(nc3ccc(Cl)cc13)CCCC2 | inactive: -4.25%
CCOC(=O)c1cc2c(=O)n3ccccc3nc2n(Cc2ccco2)c1=NC(=O)c1cccc(C)c1 | inactive: -3.73%
Cc1ccc(NC(=O)CSc2nc3ccccc3c(=O)n2CCC(=O)NC2CCCCC2)cc1C | inactive: -1.7%
Cc1cccc(N2CCN(C(=O)C3CCN(S(=O)(=O)c4c(C)noc4/C=C/c4ccccc4F)CC3)CC2C)c1 (configuration not stated) | inactive: 13.7%
Cc1ccc(NC(=O)Nc2cn(C)c(=O)c3ccccc23)c(Cl)c1 | inactive: -32.1%
Cc1ccc2oc(=O)c3cnn(CC(=O)N4CCN(c5ccccc5F)CC4)c3c2c1 | inactive: -4.75%
Cc1ccc(C2C=C(c3ccccc3)Nc3nc(NS(=O)(=O)c4ccc(C)cc4)nn32)cc1 (configuration not stated) | inactive: -11.3%

SMILES | activity change, positive = activation
Cc1cc(=O)n(Cc2ccccc2)c2c1c(C)nn2-c1ccccc1 | inactive: -4.77%
CCc1ccccc1NC(=O)c1ccc(Cn2nc(N3CCN(c4ccccc4)CC3)ccc2=O)o1 | inactive: -42.4%
Cc1nc2c3ccccc3nc(NNC(=O)CCC(=O)N3CCN(c4cc(Cl)ccc4C)CC3)n2n1 | inactive: -16.8%
CCc1cccc(NC(=O)CSc2nc3ccccc3nc2N2CCCCC2)c1 | inactive: -31%
COc1cccc(NC(=O)c2sc3nc(C)c(C(=O)Nc4ccc(C)cc4C)c(-c4ccco4)c3c2N)c1 | inactive: 0%
COc1ccc(OCC(=O)Nc2cccc(C(=O)OCc3cc(=O)n4nc(C)sc4n3)c2)cc1 | inactive: -9.8%
CNC(=O)CCCN1C(=O)CCn2nc(-c3cn(C)c4ccccc34)cc21 | inactive: -15.6%
CCC1CN(C(=O)NCc2ccc(F)cc2)c2cc(Cl)ccc2O1 (configuration not stated) | inactive: -26.4%
COc1ccc(C2CC(=O)c3cc(-c4nc(-c5ccc(C)cc5)cs4)c(=O)[nH]c3C2)cc1 (configuration not stated) | inactive: -5.68%
CC(C)c1ccc(NC(=O)Cc2ccc(NC(=O)N3CCCCc4ccccc43)cc2)cc1 | inactive: -15.8%
CCOC(=O)c1c(C)[nH]c(C)c1S(=O)(=O)N(C)CC(=O)NCc1ccc(C)cc1 | inactive: -8.72%
CCOc1cccc(CNC(=O)c2ccc(N3CCCC3)c(NC(=O)Nc3ccccc3CC)c2)c1 | inactive: -24.9%
COc1ccc(NC(=O)C2CCCN(S(=O)(=O)c3c(C)[nH]c(=O)[nH]c3=O)C2)cc1 (configuration not stated) | inactive: -0.681%
CCCCOc1ccc(CNC(=O)CN2C(=O)CCn3nc(-c4cn(C)c5ccccc45)cc32)cc1 | inactive: -32.9%
COc1cc(OC)c(NC(=O)CC(C)S(=O)(=O)c2ccc3c(c2)NC(=O)CO3)cc1Cl (configuration not stated) | inactive: -10.5%
COc1ccc(S(=O)(=O)NCCc2csc(-c3cccc(F)c3)n2)cc1OC | inactive: -23.8%
CCn1cc(S(=O)(=O)c2ccc(OC)cc2)c(=O)c2cc(F)c(N3CCCCCC3)cc21 | inactive: -12.1%
COc1ccc(-c2nn(-c3ccc(C)c(Cl)c3)c3c2cnc2cc(OC)c(OC)cc23)cc1 | inactive: 0.618%
Nc1nc(Nc2cccc(Cl)c2)sc1C(=O)c1ccc(F)cc1 | inactive: -13.8%
CCOc1ccc(/C=C/C(=O)Nc2sc3c(c2C(=O)OC)CCCC3)cc1 | inactive: 4.1%
O=C(CSc1ncc2c(n1)-c1cc(Cl)ccc1N(Cc1ccccc1)S2(=O)=O)NCCc1ccccc1 | inactive: -10.4%
COc1ccc(NC(=O)c2cccn2-c2nnc(N3CCCCC3)s2)c(OC)c1 | inactive: 8.66%
CCOC(=O)COc1cc(C)c(Cl)cc1C(=O)c1ccn2nc(-c3ccc(OC)cc3)cc2n1 | inactive: -5.34%

From PubChem BioAssay AID1508624 (National Center for Advancing Translational Sciences (NCATS), 2021)
